{"source": "PubChem BioAssay AID445", "about": "(National Center for Advancing Translational Sciences (NCATS), 2006)", "note": "Hit rate of the full screen: of about 110,000 compounds, about 40 (0.04%) were called active. The shares of active, inactive and inconclusive entries below differ from those in the screen. The call rests on the fitted dose curve; in most records, active means well fitted curve in the direction sought with a large enough effect in the signal ratio (not every such curve was filed as active); inconclusive means small, poorly fitted or top-dose-only effect, or a change in a side signal; inactive means flat fitted curve, though single readings scatter; the % refers to the signal ratio. Potencies of inconclusive entries are doubtful fits and often do not repeat. Potency means the concentration at half of the fitted maximal effect.", "data": [{"experiment": "IkB Signaling;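 on IkBa stabilization activation: 0% = basal untreated cells and 100% = reference inhibitor full response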", "details": "ABC-DLBCL IkBa-CBG/CBR dual luciferase ratio (green luciferase fused to IkBa over red control in OCI-Ly3 lymphoma cells), 4 h; IkBa stabilization activation: at 57.1 µM (top of the series), scaled: untreated 0%, proteasome inhibitor 100% unless noted", "how_it_was_run": "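In this assay, an IκBα–CBG68 fusion accumulates when IKK-driven degradation is blocked; native CBR normalizes for cell number. OCI-Ly3 cells were treated 4 h with compound and doxycycline, then green and red light read after Chroma-Glo addition.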", "values": [{"smiles": "COc1ccc2cc3c(N)c(C(=O)NCc4ccco4)sc3nc2c1", "IkBa stabilization activation": "inactive: -0.619%"}, {"smiles": "COc1ccccc1-c1cc(C(=O)N2CCc3ccccc3C2)no1", "Potency": "inconclusive: 15.8 µM [signal inhibitor, partial curve]"}, {"smiles": "O=C(NCCO)c1ccc(Cl)cc1", "IkBa stabilization activation": "inactive: 0.331% [at 11.4 µM, scaled: untreated 0%, proteasome inhibitor 100%]"}, {"smiles": "CCCCN(CC)S(=O)(=O)c1ccc(C(=O)Nc2nnc(-c3ccccc3Cl)o2)cc1", "IkBa stabilization activation": "inactive: 1.1%"}, {"smiles": "O=C(Nc1nnc(S(=O)(=O)N2CCCCCC2)s1)c1ccccc1Cl", "IkBa stabilization activation": "inconclusive: -2.22% [signal inhibitor]"}, {"smiles": "CCOc1ccc(NC(=O)c2cc3c(s2)-c2ccccc2OC3)cc1", "IkBa stabilization activation": "inconclusive: -0.148% [signal inhibitor]"}, {"smiles": "Cc1cccc(NC(=O)C(Cc2ccccc2)n2cccc2)c1C", "note": "(stereo not drawn)", "IkBa stabilization activation": "inconclusive: 2.99% [signal inhibitor]"}, {"smiles": "COC(=O)c1ccc2c(=O)n(CCCCCC(=O)N3CCN(c4cc(Cl)ccc4C)CC3)c(=O)[nH]c2c1", "IkBa stabilization activation": "inactive: -0.277%"}, {"smiles": "COC(=O)c1cc2sccc2n1Cc1nc(-c2cccc(Br)c2)oc1C", "IkBa stabilization activation": "inconclusive: -2.9% [signal inhibitor]"}, {"smiles": "COc1ccccc1Nc1c2c(nc3ccc(NC(=O)c4cccc(OC)c4OC)cc13)CCCC2", "IkBa stabilization activation": "inconclusive: -7.07% [signal inhibitor]"}, {"smiles": "CCC1CCCCN1C(=O)CSc1n[nH]c(-c2ccccc2Cl)n1", "note": "(stereo not drawn)", "IkBa stabilization activation": "inactive: -0.749%"}, {"smiles": "FC(F)(F)c1cccc(N2CCN(Cc3nnc(-c4ccc5c(c4)OCO5)o3)CC2)c1", "IkBa stabilization activation": "inconclusive: 9.47% [signal inhibitor]"}, {"smiles": "CSc1cccc(NC(=O)Nc2ccccc2)c1", "IkBa stabilization activation": "inconclusive: 2.65% [signal inhibitor]"}, {"smiles": "Cc1cc(C)n(-c2ccc(C(=O)NCc3ccc4c(c3)OCO4)cc2)n1", "IkBa stabilization activation": "inactive: 1.06%"}, {"smiles": "COc1cccc2c(=O)n(CC(=O)NC3CCCC3)ccc12", "IkBa stabilization activation": "inactive: 1.35%"}, {"smiles": "CC(C)(C)C1CCc2c(sc(NC(=O)CCC(=O)O)c2C(=O)Nc2ccccc2C(F)(F)F)C1", "note": "(stereo not drawn)", "IkBa stabilization activation": "inconclusive: -2.24% [signal inhibitor]"}, {"smiles": "COc1ccc(Oc2ncc3nc(-c4ccc(F)cc4)c(=O)n(CCC#N)c3n2)cc1", "IkBa stabilization activation": "inactive: 1.12% [at 11.4 µM, scaled: untreated 0%, proteasome inhibitor 100%]"}, {"smiles": "NCCCCN", "IkBa stabilization activation": "inactive: -1.16%"}, {"smiles": "CCc1ccc2c(c1)-c1ccccc1S(=O)(=O)N2CC(=O)N1CCC(C)CC1", "IkBa stabilization activation": "inconclusive: -2.32% [signal inhibitor]"}, {"smiles": "O=C(N[C@@]1(C(=O)O)C[C@@H]1c1ccccc1)c1ccccc1", "IkBa stabilization activation": "inactive: 0.156% [at 11.4 µM, scaled: untreated 0%, proteasome inhibitor 100%]"}, {"smiles": "CC1CCN(S(=O)(=O)c2ccc3c(c2)N(CC(=O)N2CCN(c4ccccc4)CC2)C(=O)CO3)CC1", "IkBa stabilization activation": "inconclusive: -0.976% [signal inhibitor]"}, {"smiles": "CC(=O)c1ccc(NC(=O)Cn2ncc3c(C)n(Cc4ccc(F)cc4)c(C)c3c2=O)cc1", "IkBa stabilization activation": "inactive: 0.807%"}, {"smiles": "COc1ccccc1C(=O)Nc1nc2nc(C)c(Cc3ccccc3)c(=O)n2[nH]1", "IkBa stabilization activation": "inconclusive: 6.57% [signal inhibitor]"}, {"smiles": "CCOC1=NC(C(=O)O)c2ccccc2/C(=C(/C)Cl)N1", "note": "(stereo not drawn)", "IkBa stabilization activation": "inconclusive: 0.0166% [signal inhibitor]"}, {"smiles": "CCOC(=O)c1cnc(-n2nc(C)cc2C)nc1Nc1ccc2c(c1)OCO2", "IkBa stabilization activation": "inactive: -2.37%"}, {"smiles": "COc1ccc(O)c(-c2c(-c3ccc(Cl)cc3)n[nH]c2C)c1", "IkBa stabilization activation": "inconclusive: -8.77% [signal inhibitor]"}, {"smiles": "Cc1ccc(Nc2cc(C(=O)NCc3cccs3)c3ccccc3n2)c(C)c1", "IkBa stabilization activation": "inconclusive: -1.35% [signal inhibitor]"}, {"smiles": "c1ccc(Cn2c(-c3ccco3)nc3nc4ccccc4nc32)cc1", "IkBa stabilization activation": "inactive: -0.439%"}, {"smiles": "Cc1ccc(NC(=O)Cc2coc3c(C)c(C)ccc23)cc1Cl", "IkBa stabilization activation": "inactive: -0.378%"}, {"smiles": "Cc1ccccc1N(CC(=O)Nc1ccc(F)cc1)S(C)(=O)=O", "Potency": "inconclusive: 3.16 µM [signal inhibitor, partial curve]"}, {"smiles": "COc1ccc(Nc2ncc3c(n2)CCN(C(=O)OC(C)(C)C)C3)cc1", "IkBa stabilization activation": "inconclusive: -1.96% [signal inhibitor]"}, {"smiles": "CCOC(=O)CC(=O)CSc1nnc2c(n1)[nH]c1ccccc12", "Potency": "inconclusive: 25.1 µM [signal inhibitor, partial curve]"}, {"smiles": "COc1cc2ccccc2cc1C(=O)Nc1ccc2oc(-c3ccccc3)nc2c1", "IkBa stabilization activation": "inactive: 4.51%"}, {"smiles": "CCOc1ccccc1C(=O)N(Cc1cccs1)c1ccc(Cl)cc1", "IkBa stabilization activation": "inconclusive: 2.34% [signal inhibitor]"}, {"smiles": "COc1ccc(CNc2nc(-c3ccccc3OC)nc3ccccc23)c(OC)c1", "IkBa stabilization activation": "inactive: 0.231% [at 11.4 µM, scaled: untreated 0%, proteasome inhibitor 100%]"}, {"smiles": "O=C(Nc1ccccc1)c1cn(-c2ccccc2)nc1-c1ccccc1", "IkBa stabilization activation": "inconclusive: 0.609% [signal inhibitor]"}, {"smiles": "Cc1ccc(-c2nc3cc(C)ccc3o2)cc1", "Potency": "inconclusive: 15.8 µM [signal inhibitor, partial curve]"}, {"smiles": "CN(C)c1ncc2ncc(=O)n(CCc3ccccc3)c2n1", "IkBa stabilization activation": "inactive: -2.66% [at 11.4 µM, scaled: untreated 0%, proteasome inhibitor 100%]"}, {"smiles": "CC(c1ccccc1)C1C(C#N)=C(N)SC(N)=C1C#N", "note": "(stereo not drawn)", "IkBa stabilization activation": "inactive: 2.87%"}, {"smiles": "COc1cccc(N2CCN(S(=O)(=O)c3ccc4nc(-c5ccccc5)[nH]c4c3)CC2)c1", "IkBa stabilization activation": "inconclusive: 9.6% [signal inhibitor]"}, {"smiles": "Cc1ccc(NC(=O)Cn2c(-c3cncs3)nc3ccccc32)cc1Br", "IkBa stabilization activation": "inconclusive: 4.19% [signal inhibitor]"}, {"smiles": "COc1cc2c(C(=O)N(C)c3cc(Cl)ccc3OC)cn(CC(C)C)c(=O)c2cc1OC", "IkBa stabilization activation": "inconclusive: 2.78% [signal inhibitor]"}, {"smiles": "Cc1nn(CCCC(=O)Nc2cccc(F)c2)c(=O)c2c1sc1ccccc12", "IkBa stabilization activation": "inconclusive: 0.728% [signal inhibitor]"}, {"smiles": "O=C(Nc1ccc2c(c1)OCO2)c1c(F)c(F)c(F)c(F)c1F", "IkBa stabilization activation": "inconclusive: -0.701% [signal inhibitor]"}, {"smiles": "COC(=O)c1ccc(NC(=O)Nc2ccc(F)cc2)cc1", "IkBa stabilization activation": "inconclusive: 3.15% [signal inhibitor]"}, {"smiles": "Cc1ccc(NC(=O)Cn2c(=O)c(CNc3ccccc3)cc3cc4c(cc32)OCCO4)cc1", "IkBa stabilization activation": "inconclusive: 1.51% [signal inhibitor]"}, {"smiles": "CCN(CC)C(=O)C1=C(C)Nc2nc3ccccc3n2C1c1cccc(Cl)c1", "note": "(stereo not drawn)", "IkBa stabilization activation": "inconclusive: -1.49% [signal inhibitor]"}, {"smiles": "COc1ccc(C(=O)N2CCC3(CCCN(C(=O)NC(C)C)C3)CC2)cc1", "IkBa stabilization activation": "inactive: 0.0129% [at 11.4 µM, scaled: untreated 0%, proteasome inhibitor 100%]"}, {"smiles": "Cc1cc(C)nc(N2CCN(c3nc(C)nc4c3oc3ccccc34)CC2)n1", "IkBa stabilization activation": "inactive: -2.1%"}, {"smiles": "COc1cc(CNc2ccc3[nH]c(=O)[nH]c3c2)cc(Cl)c1OCc1ccccc1F", "IkBa stabilization activation": "inconclusive: 2.22% [signal inhibitor]"}, {"smiles": "Cc1ccc(CNC(=O)c2ccc3c(c2)N(Cc2cccc(C)c2)C(=O)CS3)cc1", "IkBa stabilization activation": "inconclusive: 5.14% [signal inhibitor]"}, {"smiles": "Cc1ccc(-c2nn(CC(=O)Nc3cccc(C(F)(F)F)c3)c(=O)c3ccccc23)cc1", "IkBa stabilization activation": "inconclusive: 4.92% [signal inhibitor]"}, {"smiles": "Cc1cccc(C)c1NC(=O)CSCc1cnn(-c2ccccc2)c1-n1cccc1", "IkBa stabilization activation": "inconclusive: -0.0701% [signal inhibitor]"}, {"smiles": "COc1ccc(C)cc1NC(=O)CCn1nc(C)cc1C", "IkBa stabilization activation": "inactive: -0.374%"}, {"smiles": "CCCn1c(C)cc(C(=O)CN2C(=O)c3ccccc3C2=O)c1C", "IkBa stabilization activation": "inactive: -0.255%"}, {"smiles": "Cc1c(C(=O)N2CCN(c3ccccn3)CC2)oc2ccccc12", "Potency": "inconclusive: 20 µM [rising, partial curve]"}, {"smiles": "COc1ccccc1-c1cc(C(=O)Nc2ccccc2SC)no1", "Potency": "inconclusive: 39.8 µM [signal inhibitor, partial curve, poor fit]"}, {"smiles": "C=CCn1c2ccccc2c2nnc(SCc3ccc4nonc4c3)nc21", "IkBa stabilization activation": "inactive: -1.67%"}, {"smiles": "O=C(Nc1scc(-c2ccccc2)c1C(=O)O)c1ccco1", "Potency": "inconclusive: 25.1 µM [rising, partial curve]"}, {"smiles": "CCOc1ccc(C2=CC(c3cc(Br)ccc3F)n3ncnc3N2)cc1Cl", "note": "(stereo not drawn)", "IkBa stabilization activation": "inconclusive: 4.29% [signal inhibitor]"}, {"smiles": "CCOc1ccc(S(=O)(=O)N(C(=O)c2ccncc2)c2ccc3oc(C)c(C(=O)OC)c3c2)cc1", "Potency": "inconclusive: 1.58 µM [signal inhibitor]"}, {"smiles": "N=C(N)SCc1cccc2c(=O)cc(-c3ccccc3)oc12", "IkBa stabilization activation": "inactive: 1.37% [at 11.4 µM, scaled: untreated 0%, proteasome inhibitor 100%]"}, {"smiles": "Cc1nn(CC(=O)Nc2cccc(C(F)(F)F)c2)c(=O)c2nn(-c3ccccc3)c(C)c12", "IkBa stabilization activation": "inconclusive: -0.203% [signal inhibitor]"}, {"smiles": "CCOC(=O)c1c(NC(=O)Cn2nnc3ccccc32)sc2c1CCC(C)C2", "note": "(stereo not drawn)", "IkBa stabilization activation": "inconclusive: 7.17% [signal inhibitor]"}, {"smiles": "CN(C(=O)CSc1nc2ccccc2n1Cc1cccc(C(F)(F)F)c1)c1ccccc1", "IkBa stabilization activation": "inconclusive: 3.88% [signal inhibitor]"}, {"smiles": "CCOC(=O)c1nnn(-c2nonc2N)c1COc1ccccc1", "IkBa stabilization activation": "inactive: -1.49%"}, {"smiles": "O=C(COC(=O)c1cc(-c2ccccc2)nc2c(Cl)cccc12)c1ccc(F)cc1", "IkBa stabilization activation": "inconclusive: 0.812% [signal inhibitor]"}, {"smiles": "CCn1cc(C(=O)N2CCN(c3ccc(OC)cc3)CC2)c(=O)c2cc(S(=O)(=O)N(C)C3CCCCC3)ccc21", "IkBa stabilization activation": "inactive: -0.723%"}]}]}
